Experimental data taken from publication PMC4336329 (PLoS ONE, 2015).
In all, about 310,000 compounds went through this assay and about 14,000 (4.5%) showed an effect of 50% or more. The effect is printed as a negative number. The list shows a part of the results.

target: human ether-à-go-go-related gene (hERG) potassium channel (human, UniProt Q12809); experiment: primary screen, population patch clamp on CHO cells stably expressing hERG
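Also: peak tail current of the secondary pulse compared with the same well before compound.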

Sequence of human ether-à-go-go-related gene (hERG) potassium channel (Q12809 whole entry, looked up): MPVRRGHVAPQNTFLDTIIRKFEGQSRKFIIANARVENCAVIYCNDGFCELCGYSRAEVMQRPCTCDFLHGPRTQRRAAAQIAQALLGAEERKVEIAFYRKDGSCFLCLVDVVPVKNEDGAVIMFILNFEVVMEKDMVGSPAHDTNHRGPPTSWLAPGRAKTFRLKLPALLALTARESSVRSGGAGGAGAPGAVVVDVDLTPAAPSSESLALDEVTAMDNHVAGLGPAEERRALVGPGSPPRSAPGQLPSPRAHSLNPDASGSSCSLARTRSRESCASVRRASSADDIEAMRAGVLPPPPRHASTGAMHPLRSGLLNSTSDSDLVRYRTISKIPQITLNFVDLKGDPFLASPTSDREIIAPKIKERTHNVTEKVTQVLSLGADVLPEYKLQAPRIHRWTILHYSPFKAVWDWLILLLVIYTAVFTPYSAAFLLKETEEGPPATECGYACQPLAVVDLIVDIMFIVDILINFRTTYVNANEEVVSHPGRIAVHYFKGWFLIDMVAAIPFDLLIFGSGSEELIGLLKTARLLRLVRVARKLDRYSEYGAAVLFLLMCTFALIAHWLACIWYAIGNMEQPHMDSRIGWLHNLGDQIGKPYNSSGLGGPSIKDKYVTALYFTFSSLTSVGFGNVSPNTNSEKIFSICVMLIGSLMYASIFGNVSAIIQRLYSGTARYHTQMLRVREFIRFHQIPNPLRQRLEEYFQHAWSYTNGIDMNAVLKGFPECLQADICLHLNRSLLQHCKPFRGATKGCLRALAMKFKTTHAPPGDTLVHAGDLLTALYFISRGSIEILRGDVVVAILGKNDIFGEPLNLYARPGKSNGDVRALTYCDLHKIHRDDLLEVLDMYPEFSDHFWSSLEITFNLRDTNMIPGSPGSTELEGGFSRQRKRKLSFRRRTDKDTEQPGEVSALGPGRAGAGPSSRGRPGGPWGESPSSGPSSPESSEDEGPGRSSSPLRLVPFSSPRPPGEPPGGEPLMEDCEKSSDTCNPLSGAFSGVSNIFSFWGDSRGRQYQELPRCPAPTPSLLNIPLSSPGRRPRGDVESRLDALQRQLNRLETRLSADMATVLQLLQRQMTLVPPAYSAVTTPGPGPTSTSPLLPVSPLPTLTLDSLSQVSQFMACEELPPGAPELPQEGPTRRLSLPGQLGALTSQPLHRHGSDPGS

In order of rising “hERG current change (%, negative = inhibition) at 10uM” value:
1. Cc1ccc(Nc2c3c(nc4ccccc24)CCC3)cc1.Cl  -78.8%
2. CCOC(=O)C1(CCCc2ccccc2)CCN(Cc2ccn[nH]2)CC1  -73%
3. O=C(CN1CCN(S(=O)(=O)/C=C/c2ccccc2)CC1)NC(=O)NCc1ccco1  -40.3%
4. C=CCc1cc(Cl)ccc1OCCCNC(C)C.O=C(O)C(=O)O  -40.1%
5. CC(C(=O)NCCCc1ccccc1)c1ccc([N+](=O)[O-])cc1 (centres unmarked)  -37%
6. O=C(COC(=O)C1CC(=O)N(Cc2ccco2)C1)c1ccc(OC(=O)c2ccccc2)cc1 (centres unmarked)  -30.8%
7. O=C(CNC1CCCCCC1)Nc1ccc(N2CCCC2)cc1.O=C(O)C(=O)O  -29%
8. Cc1ccc(-c2c3c(=O)n(C)c(=O)n(C)c3cn2Cc2ccccc2)cc1  -27.5%
9. COc1ccccc1NC(=O)CSCc1ccc([N+](=O)[O-])cc1  -27.3%
10. COC(=O)c1c(NC(=O)c2ccccc2F)sc(C(=O)N2CCOCC2)c1C  -26.4%
11. COc1cc2ncnc(NCc3cc(F)ccc3F)c2cc1OC  -25.7%
12. CCNc1c(NS(=O)(=O)c2ccc(OC)cc2)c(=O)oc2ccccc12  -24.3%
13. COC(=O)C1=CN(c2ccc(F)c(F)c2)C=C(C(=O)OC)C1c1ccc([N+](=O)[O-])cc1  -23.5%
14. CC1CCc2c(sc3ncnc(NCCCOC(C)C)c23)C1.Cl (centres unmarked)  -20.4%
15. CCOC(=O)C1(Cc2cccc(Cl)c2)CCCN(C(=O)c2ccc(COC)s2)C1 (centres unmarked)  -20%
16. CCN(Cc1nc2cc(Cl)ccc2c(=O)[nH]1)C(=O)C1CC(=O)N(c2cccc3ccccc23)C1 (centres unmarked)  -19.7%
17. Cc1ccc2oc(=O)c3cc(C(=O)NCCN4CCN(C)CC4)sc3c2c1  -18.2%
18. COc1ccccc1NS(=O)(=O)c1c(C)nc2sccn2c1=O  -15.1%
19. COc1ccccc1CNC(=O)Nc1cccs1  -13.6%
20. C/C=C(/C)C(=O)Nc1cccc(C2=NOC3(C2)C[C@H](C(N)=O)N(C(=O)COc2ccc(Cl)cc2)C3)c1 (some centres unmarked)  -12%
21. Cc1ccc(N(C(=O)Cc2cccs2)C(C(=O)NC2CCCCC2)c2ccccn2)cc1C (centres unmarked)  -11.9%
22. NNC(=O)c1nc[nH]c1C(=O)Nc1ccccn1  -11.7%
23. CCOC(=O)CC(=O)COc1nc2cc3c(nc2o1)CCCC3  -11.4%
24. Cc1ccc(CNC(=O)C(=O)NCC2OCCN2S(=O)(=O)c2ccc3c(c2)OCCO3)cc1 (centres unmarked)  -11.3%
25. CC1Cc2ccccc2N1S(=O)(=O)c1cccc(C(=O)c2nccn2C)c1 (centres unmarked)  -10.8%
26. O=C(NC(=S)N1CCCCCC1)c1ccccc1Cl  -10.6%
27. CC1CN(c2nc(-c3ccccc3)nnc2-c2ccccc2)CC(C)O1 (centres unmarked)  -9.96%
28. CCOC(OCC)c1ccc(/C=C\c2nccc(N)n2)cc1  -9.34%
29. O=C1c2cccc([N+](=O)[O-])c2C(=O)N1c1ccccc1  -8.51%
30. Cc1c(Cl)cccc1-n1nnnc1-c1cccs1  -7.33%
31. Cc1ccc(NC(=O)CSCC(=O)Nc2cccc3ncccc23)cc1  -6.65%
32. CC(C)(C)c1cc(CN(CCO)CCO)cc(C(C)(C)C)c1O  -6.39%
33. CCOc1ccc(NC(=O)/C=C/c2ccccc2)c([N+](=O)[O-])c1  -5.94%
34. CCCN(CC(=O)Nc1ccccc1C)C(=O)C1CC(=O)N(Cc2ccccc2)C1 (centres unmarked)  -5.15%
35. C=CCN(C(=O)C1CSC2(C)CCC(=O)N12)c1nc(-c2ccccc2)cs1 (centres unmarked)  -5.07%
36. O=[N+]([O-])c1c(NCCO)cc(N2CCC3(CC2)OCCO3)c2nonc12  -5.06%
37. Cc1nccn1Cc1cccc2ccccc12  -4.88%
38. CCCC(=O)Nc1ccc2oc(-c3cccnc3)nc2c1  -3.04%
39. COc1ccc(-n2c(COc3cccc(C)c3)nnc2SCC(=O)NCc2ccco2)cc1  -2.73%
40. Cc1nc2ccccn2c1C(=O)N/N=C/c1ccc2c(c1)OCO2  -2.14%
41. CN(C)C(CNC(=O)c1ccc2[nH]c(=O)c(=O)[nH]c2c1)c1ccco1 (centres unmarked)  -1.94%
42. O=C(O)c1ccccc1NS(=O)(=O)c1cccc(C(F)(F)F)c1  -1.4%
43. c1ccc(C2Nc3ccccc3-c3nc4ccccc4n32)nc1 (centres unmarked)  -1.28%
44. Clc1nnc2ccc(-c3ccccc3)nn12  -0.569%
45. Cc1ccc(NC(=O)NCCCN2CCCC2=O)cc1  1.5%
46. COc1cccc(CNC(=O)CCl)c1  1.75%
47. COc1ccc(CC(=O)Nc2ccc(-c3ccc4nnc(C)n4n3)cc2)cc1OC  2.72%
48. CN(C)CCCNC(=O)Cc1ccc(Br)cc1  3.78%
49. Cl.OC(COc1ccc2c(c1)OCO2)CN1CCCC1 (centres unmarked)  5.48%
50. C=CCn1c(O)c(C(C)=NCCCN(C)C)c(=O)[nH]c1=O  5.49%
51. CC(C)c1nc2ccccc2n1CCC(=O)O  5.52%
52. O=[N+]([O-])c1cccc(-c2nnn(C34CC5CC(CC(C5)C3)C4)n2)c1  5.85%
53. CCOc1ccc(CN(C)C(=O)CNC(=O)c2ccccc2)cc1  5.97%
54. O=C(NNC(=O)C1CC=CCC1)c1ccccc1Br (centres unmarked)  6.66%
55. O=C1c2cccc3cccc(c23)C(=O)N1CCCN(C(=O)c1cccs1)c1cccc(F)c1  6.68%
56. FC(F)(F)c1nc(N2CCN(c3ccccc3)CC2)nc2c1CCCCC2  6.74%
57. COC(=O)c1c(NC(=O)COC(=O)CNC(=O)c2ccco2)sc(C)c1C  7.16%
58. C[C@]12CCC(=O)C=C1CC[C@@H]1[C@@H]2[C@@H](O)C[C@@]2(C)[C@H]1CC[C@]2(O)C(=O)COC(=O)CCC(=O)[O-].[Na+]  7.93%
59. CC(Oc1ccc(Cl)cc1Cl)C(=O)NC(=S)N1CCc2ccccc21 (centres unmarked)  7.94%
60. N#Cc1ccc(COC(=O)c2cnc(Cl)c(Cl)c2)cc1  8.12%
61. Cc1ccc(NC(=O)CN(C)C(=O)c2cccc(Br)c2)cc1  8.34%
62. CCc1ccccc1NC(=O)CN(C)C(=O)c1cc(C2CC2)nn1-c1ccccc1  8.55%
63. CCc1nn(CC(=O)NCCCc2ccccc2)c(=O)c2cc3c(OC)cccc3n12  8.86%
64. COC(=O)C(NC(C)=O)(Nc1cc(C)ccn1)C(F)(F)F (centres unmarked)  9.34%
65. Cc1ccc(CSc2nnc(-c3cnccn3)n2C)cc1  9.53%
66. O=C(/C=C/NCC(=O)c1ccccc1)c1ccc(Br)cc1  9.65%
67. COc1ccc(S(=O)(=O)N(C)CC(=O)NC2CCCCC2)cc1OC  10.1%
68. CCc1cc(C(=O)O)c(NC(=O)c2cc(OC)c(OC)c(OC)c2)s1  10.5%
69. Cc1n[nH]c(=O)nc1N/N=C/c1ccco1  11.7%
70. Cc1ccc(-c2cc(N)n3nc(-c4ccc(C)cc4)cc3n2)cc1  11.9%
71. COC(=O)c1[nH]c2ccccc2c1NC(=O)Oc1ccccc1  12%
72. Cc1cccc(C)c1NC(=O)Cn1nc(-c2ccc(Cl)s2)ccc1=O  12%
73. O=C(O)C1CCN(C(=O)COc2ccc3c(c2)oc(=O)c2ccccc23)CC1  13.5%
74. CN(C)C(=O)C[n+]1ccc(/C=N/O)cc1  14.3%
75. O=C(O)CSCC(=O)NCc1c(Cl)cccc1Oc1ccccc1  14.5%
76. COc1ccccc1C(=O)ON=C1c2ccccc2-c2ccccc21  15.2%
77. Cc1ccc(NC(=O)CCc2c(C)nn(-c3ccc(N4CCOCC4)nn3)c2C)c(C)c1  15.7%
78. CCCN1C(=O)C(O)(C2COC(C)(C)CC2=O)c2ccccc21 (centres unmarked)  18.3%
79. CC(C)(C)NC(=O)NC(=O)COc1ccccc1C#N  19.4%
80. COCC(C)N=C1NN=C(c2cccs2)C(CC(=O)O)S1 (centres unmarked)  20%
81. Cc1nn(Cc2ccc(F)cc2)c2sc(C(=O)Nc3nccs3)cc12  20.7%
82. CC(C)CC(=O)Nc1ccc2nn(-c3ccccc3)nc2c1  20.7%
83. O=C1NC(=O)/C(=C\c2ccc(Br)o2)S1  21%
84. C=CCOC(=O)C1=C(C)Nc2[nH]c(=O)[nH]c(=O)c2C1c1ccccc1 (centres unmarked)  21.1%
85. Cc1ccc2nc(-c3ccc(NS(=O)(=O)c4ccc(F)c(F)c4)cc3)sc2c1  23.3%
86. Cc1ccc(S(=O)(=O)Oc2ccc(/C=N/N=C3/NC(=O)C(CC(=O)O)S3)cc2)cc1[N+](=O)[O-] (centres unmarked)  24%
87. CC(C)c1nc2cc(Cl)ccc2n(Cc2ccccc2)c1=O  24.6%
88. CCC(C)NC(=O)Nc1ccc(C)cc1C (centres unmarked)  26%
89. Cc1ccc(Cl)cc1N1CCN(C(=O)Cc2c(C(=O)O)[nH]c3ccc(Cl)cc23)CC1  26.1%
